Assay results as given in publication PMC4336329 (PLoS ONE, 2015).
Screen size: about 310,000 compounds; about 2,200 (0.71%) showed an effect of 50% or more. Effects have a minus sign here. The list shows a part of the results.

Molecular target: human ether-à-go-go-related gene (hERG) potassium channel (human, UniProt Q12809)
Assay: primary screen, population patch clamp on CHO cells stably expressing hERG

human ether-à-go-go-related gene (hERG) potassium channel, sequence (Q12809 whole entry, looked up): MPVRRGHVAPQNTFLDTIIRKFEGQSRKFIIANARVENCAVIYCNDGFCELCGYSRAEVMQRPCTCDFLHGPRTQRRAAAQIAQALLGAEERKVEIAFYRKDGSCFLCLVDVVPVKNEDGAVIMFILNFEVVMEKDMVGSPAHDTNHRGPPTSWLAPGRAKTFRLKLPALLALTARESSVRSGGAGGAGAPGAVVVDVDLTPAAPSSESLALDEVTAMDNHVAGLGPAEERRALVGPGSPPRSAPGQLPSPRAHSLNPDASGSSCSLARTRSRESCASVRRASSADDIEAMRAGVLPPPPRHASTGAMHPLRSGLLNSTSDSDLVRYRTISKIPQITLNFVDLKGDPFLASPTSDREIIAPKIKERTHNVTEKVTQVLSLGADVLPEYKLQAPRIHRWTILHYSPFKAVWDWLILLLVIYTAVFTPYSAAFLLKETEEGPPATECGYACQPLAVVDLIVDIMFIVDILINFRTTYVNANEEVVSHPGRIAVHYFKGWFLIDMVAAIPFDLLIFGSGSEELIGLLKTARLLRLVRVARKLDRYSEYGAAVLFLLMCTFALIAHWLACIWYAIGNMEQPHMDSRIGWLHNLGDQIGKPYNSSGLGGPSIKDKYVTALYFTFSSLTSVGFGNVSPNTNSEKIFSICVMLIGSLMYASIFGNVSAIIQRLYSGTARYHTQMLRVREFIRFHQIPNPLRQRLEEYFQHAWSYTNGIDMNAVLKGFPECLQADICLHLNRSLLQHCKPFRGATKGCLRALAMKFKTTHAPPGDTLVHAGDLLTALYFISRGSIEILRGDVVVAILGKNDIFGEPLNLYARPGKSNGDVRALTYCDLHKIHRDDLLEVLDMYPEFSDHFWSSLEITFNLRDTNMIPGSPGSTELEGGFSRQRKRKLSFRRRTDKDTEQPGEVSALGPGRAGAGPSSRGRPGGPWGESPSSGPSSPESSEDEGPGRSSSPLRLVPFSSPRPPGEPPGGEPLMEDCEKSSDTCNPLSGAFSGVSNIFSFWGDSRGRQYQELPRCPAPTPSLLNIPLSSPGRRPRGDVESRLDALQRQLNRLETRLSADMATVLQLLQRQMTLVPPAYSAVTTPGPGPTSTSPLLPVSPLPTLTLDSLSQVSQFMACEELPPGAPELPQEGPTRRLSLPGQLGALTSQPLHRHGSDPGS

In order of rising “hERG current change (%, negative = inhibition) at 1uM” value:
1. CCOc1ccc2nc(N3CCCC(C(=O)NCCCN4CC(C)CC(C)C4)C3)sc2c1 (stereo not drawn)  -17.7%
2. Cc1cc(C(C)(C)C)ccc1OCCN(C)C  -15.1%
3. CCn1c(CNC(=O)Cc2ccc(OC)cc2)nnc1SCC(=O)Nc1nccs1  -5.49%
4. Cc1cccc(C)c1NC(=O)C(Cl)=C(Cl)Cl  -0.915%
5. CC(C)CNC(=O)CO/N=C/c1ccccc1Cl  -0.913%
6. C=CCN(c1ccccc1)S(=O)(=O)c1cc2c(cc1C)N(C)CCO2  1.53%
7. O=C(CN1CCN(Cc2ccc(F)cc2Cl)C1=O)NCCCN1CCOCC1  2.42%
8. CC(C)OC(=O)C(CC(=O)O)NCc1ccccc1 (stereo not drawn)  3.06%
9. COc1ccc(Nc2ncnc3scc(-c4ccc(OC)cc4)c23)cc1  3.43%
10. C#CCOCCOCCOCCNc1nc(N2CCN(C(=O)[C@H]([C@@H](C)CC)n3cc(CCCC[NH3+])nn3)CC2)nc(N2CCN(C(=O)[C@H](CCCC[NH3+])n3cc(CCC(=O)O)nn3)CC2)n1.[Cl-]  3.88%
11. Cc1ccc(N(CC(=O)N2CCOCC2)S(C)(=O)=O)cc1Cl  4.32%
12. CC(=O)C1=C(c2ccccc2)OC(N)=C(C#N)C1c1ccccc1C (stereo not drawn)  5.18%
13. COC(=O)[C@@]1(Cc2ccc(F)cc2)[C@H]2c3cc(C(=O)N(C)C)n(Cc4ccc(OC(F)(F)F)cc4)c3C[C@H]2CN1C(=O)c1ccccc1  5.35%
14. CCOc1ccc(/C(=N\O)C(C)NO)cc1 (stereo not drawn)  5.47%
15. C/C(=N\S(=O)(=O)c1ccc(C)cc1)Nc1cc(C(C)C)c(O)cc1C  6.13%
16. O=C1CC(c2ccccc2)Cc2nc3nc(C(F)(F)F)nn3cc21 (stereo not drawn)  6.29%
17. CCOC(=O)N1CCC(NC(=O)c2oc3c(F)cccc3c2C)CC1  6.56%
18. N/C(=N\OC(=O)c1cc(-c2ccccc2)nc2ccccc12)c1ccncc1  8.01%
19. O=C(NCCCN1CCCC1=O)c1sc2ccccc2c1Cl  8.01%
20. NCCc1ccccn1  8.25%
21. O=C1CC(c2c(F)cccc2Cl)C(n2cncn2)C(O)=C1C1NCCc2ccccc21 (stereo not drawn)  8.64%
22. COc1ccc(CCC(=O)Nc2ncc(C)s2)cc1OC  9.05%
23. CCOC(=O)Cn1nnnc1C  9.62%
24. CC(=O)Nc1ccc(S(=O)(=O)N2CCN(c3cnn(C)c(=O)c3Cl)CC2)cc1  9.83%
25. COc1ccccc1C1(O)CCN(C(=O)c2cccs2)CC1  9.98%
26. Br.NCCCC(=O)OC1N=C(c2ccccc2Cl)c2cc(Br)ccc2NC1=O (stereo not drawn)  10.4%
27. O=C(NCCCO)c1c(O)c2cccc3c2n(c1=O)CCC3  10.6%
28. COc1ccc(NC(=O)CCS(=O)(=O)c2ccccc2Cl)cc1S(=O)(=O)Nc1ccc(Cl)cc1  10.7%
29. O=C1CCC2c3ccc4ccccc4c3CCN12 (stereo not drawn)  10.7%
30. COc1cc(Cl)cc(C2NC(=S)NC(c3ccccc3)=C2C(C)=O)c1OCC(=O)O (stereo not drawn)  11%
31. CCCCCCn1c(O)c(C(C)=NC)c(=O)[nH]c1=O  11%
32. CC(C)c1ccc(/C=C/C(=O)Nc2nn[nH]n2)cc1  11.1%
33. C=CCn1c(C(C)NC(=O)CC)nc2ccccc21 (stereo not drawn)  11.1%
34. Cc1ccc(S(=O)(=O)Nc2cc(C)c(O)cc2C)cc1  11.2%
35. CC(=O)NC(Cc1cc(C)ccc1C)C(=O)N1CCN(C(=O)c2ccccc2Br)CC1 (stereo not drawn)  11.9%
36. COC(=O)c1c(-c2ccccc2)csc1NC1=NS(=O)(=O)c2ccccc21  12.3%
37. CCOC(=O)C1=C(C)N(C)C(=O)NC1c1c(O)ccc2ccccc12 (stereo not drawn)  13.3%
38. Cc1ccc(C(=O)Nc2nc(=O)n(C(=O)c3ccccc3C)s2)cc1  13.8%
39. CC(C)Nc1c([N+](=O)[O-])c(=O)oc2ccccc12  14.1%
40. CCc1nc(N=Nc2c(O)[nH]c3ccccc23)c2c3c(sc2n1)CCC3  15.5%
41. O=[N+]([O-])/C=C/c1cn(Cc2ccc(F)cc2)c2ccccc12  15.8%
42. COc1ccc(S(=O)(=O)N2N=C(c3cccc(NS(C)(=O)=O)c3)CC2c2ccco2)cc1 (stereo not drawn)  16.4%
43. Cc1noc(C)c1COc1cccc(C(=O)Nc2ccc(OCc3ccccc3)cc2)c1  16.4%
44. O=C(N/N=C/c1ccc(O)c2ccccc12)c1cccnc1  17%
45. O=C(N/N=C/c1ccccc1OC(=O)N1CCOCC1)c1cccs1  18.9%
